According to the supplement of paper PMC3334620:
In all, about 33,000 sequences were measured (“E-score (-0.5 to 0.5)”: median about -0.012, highest 2% from about 0.27 on). The list shows a part of the results.

Molecular target: T1, Vhr1 (UniProt P40522)
T1 sequence: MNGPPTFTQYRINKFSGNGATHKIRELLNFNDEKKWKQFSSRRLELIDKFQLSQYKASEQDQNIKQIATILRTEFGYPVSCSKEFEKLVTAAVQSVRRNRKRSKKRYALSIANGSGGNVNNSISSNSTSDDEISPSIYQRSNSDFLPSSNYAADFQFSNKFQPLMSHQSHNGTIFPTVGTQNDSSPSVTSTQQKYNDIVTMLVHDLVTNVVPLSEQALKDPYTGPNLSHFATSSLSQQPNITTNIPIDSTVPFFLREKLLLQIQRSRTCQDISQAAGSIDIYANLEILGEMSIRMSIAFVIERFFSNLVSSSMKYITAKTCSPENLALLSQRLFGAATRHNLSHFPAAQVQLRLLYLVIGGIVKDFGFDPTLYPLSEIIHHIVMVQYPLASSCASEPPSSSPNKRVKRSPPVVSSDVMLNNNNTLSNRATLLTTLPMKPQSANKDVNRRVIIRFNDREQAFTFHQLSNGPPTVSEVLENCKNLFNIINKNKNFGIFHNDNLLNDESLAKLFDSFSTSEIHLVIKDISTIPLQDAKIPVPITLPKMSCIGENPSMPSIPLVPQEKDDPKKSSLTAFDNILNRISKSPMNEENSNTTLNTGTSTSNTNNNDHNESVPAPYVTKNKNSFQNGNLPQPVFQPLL
Experiment: PBM E-score (8-mer binding enrichment) (E-score (-0.5 to 0.5)); higher = stronger / more preferred TF binding; most listed sequences are background and not binding sites
Details: protein concentration: 200 nM; construct: GST-full length
Method in brief: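 Bound GST-tagged yeast transcription factors, applied at about 100-200 nM to double-stranded universal all-10-mer Agilent arrays, were detected with fluorescent anti-GST. Scans were normalised with masliner. A modified Wilcoxon-Mann-Whitney statistic, the E-score, was assigned to each ungapped eight-base word pooled with its reverse complement by the Universal PBM Analysis Suite.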

Sequence	PBM E-score
CTTCGACA	-0.0949
AGAACGAT	-0.0492
ACTAGTAG	0.00335
ATGCGCAC	-0.0465
CACTCTTA	-0.0396
GACACCTC	0.0308
GCGTGTCA	0.107
GCCCGGGC	0.0736
ACTCCAGA	0.0505
CTTGAAAC	0.0278
ACCCGTCT	-0.0562
ACGGAGAG	-0.102
TCCTCACA	0.00996
TACTAAAA	-0.135
GAGAGTGA	0.0843
AAATGTCA	-0.0774
CGGAATAC	-0.00767
ACACTCTA	0.067
AGGTCTCA	0.112
ATCGTACA	-0.00558
CATCCTAG	0.00502
AGGAAGAG	-0.15

Sequence	PBM E-score
CGGTTGAG	0.22
GAGTCGCC	0.424
ACTATTCC	0.134
ATGTGCGG	0.203
GGTACTGA	0.144
CGATTTAG	-0.0352
GGCACTAC	-0.159
AAGTCGGT	-0.166
GCGCTAAA	-0.142
GTTCGTTA	0.0241
AGAACACG	-0.0678
AACGCGTA	-0.154
GGCCGAGA	-0.0709
TGCTGGAA	-0.154
ACCTTGCC	-0.00894
ACGCCAAC	-0.17
GGCGTTGA	-0.163
CAACACAG	0.139
GTTACTGA	0.00258
CATGCAGA	0.0528
AATCGTAT	0.169
CTAGGCTA	-0.136

Sequence	PBM E-score
AGCGGCAC	-0.043
AGGTGTAG	-0.0292
CGCGTTTC	-0.087
AGCGGTGC	-0.0768
GATATTAC	0.18
GTCTGGGA	-0.123
AAATAGAA	-0.154
CCCTTGGC	-0.237
AAATATTC	-0.0235
GGGTAACC	0.0583
CGAGTAAA	-0.0983
CCAGAGTC	0.222
GTAACGCA	-0.0119
ACACGGGT	0.161
ATTCAGTA	0.0937
ATGTCTTA	-0.00805
CCAGCTAA	-0.0677
CGAACGGA	0.213
CACATGAC	0.272
AATAATGT	0.0585
AAAAGCTG	-0.171
ACAAACAT	0.13

Sequence	PBM E-score
TCCCAAGA	-0.088
GTAATGCA	-0.162
GACCGGCA	0.0411
GTGATGAA	-0.0246
ACCTACAC	-0.0148
GACATGGC	-0.0383
CATACCCG	0.177
GGAATCAA	0.154
ACACGCCC	0.133
CCAAGTGC	-0.217
GACCCGGA	-0.0423
ATAGTGAA	-0.0787
CCCGAGCA	0.0308
CGGACAAC	0.16
GAGTACAA	0.166
GCAAGTGA	-0.129
TAGGACAA	-0.201
AGGTTACA	-0.0607
GCTGTTCA	-0.0249
ACAGAATA	0.0685
